Certain results were filed several times, with different values. The list is limited to them. An entry can have further records. Values that stand side by side are repeated measurements in other runs, samples, wells, individuals or studies.
System: 648629-189-R-J1-PDC complex spheroids viability
Experiment: Anticancer human tumor 648629-189-R-J1-PDC patient-derived bladder carcinoma cell line growth inhibition [CLK]
Conditions: compound alone 0.316 µM; stronger effect = lower value
Excerpt: A high-throughput screen of multi-cell type tumor spheroids was designed to identify active combinations of […] and targeted small molecules. Complex spheroids include a stromal component modeled by human endothelial cells (HUVEC) and fibroblasts modeled by human mesenchymal stem cells (MSCs). The concentration ranges selected for each drug and investigational agent were based upon clinically achievable concentrations if the clinical Cmax of the agent was known.
Compounds. The drugs and investigational agents: cirtuvivint (SM08502; NSC835563), CC-671 (NSC850746), vemurafenib (NSC761431), tapotoclax (NSC804041), sotorasib (NSC818433), adagrasib (NSC831453), MRTX-1133 (NSC836407), BAY2416964 (NSC825713), copanlisib (NSC816437), inavolisib (NSC800729), abemaciclib (NSC768073), osimertinib (NSC779217), entinostat (NSC756642), eltanexor (KPT-8602, NSC794443), venetoclax (NSC766270), ceralasertib (NSC777638), bortezomib (NSC756655), olaparib (NSC753686), talazoparib (NSC767125), alisertib (NSC759677), peposertib (NSC802822), gemcitabine (NSC613327), 5-fluorouracil (NSC19893), SN-38 (NSC673596), oxaliplatin (NSC266046), paclitaxel (NSC125973), and doxorubicin (NSC123127), were obtained from the National Cancer Institute (NCI) Developmental Therapeutics Program Chemical Repository. […] If the clinical Cmax for an agent had not been determined, the highest concentration tested was 10 microM. […]
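Also: drug exposure lasted seven days before viability readout; 100% = DMSO vehicle control wells.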

CN1CCN(c2cc(C(=O)Nc3cc4cc(-c5cnn(C)c5)ccc4cn3)ccn2)CC1
viability, T/C: 38.4, 23.4, 28.4, 44.1, 45.8, 42.1, 51.9, 44.4, 37.2, 49.6, 48.6, 47.1%

— PubChem BioAssay AID2060602 (Molecular Pharmacology Branch, DTP, NCI, 2025)
